Values joined by “and” are separate entries in the source; they are usually repeats but may differ in a detail not shown here. Equal values may be shown once.
System: male Sprague-Dawley rats
Experiment: Non-contact penile erections in sexually experienced male rats in the presence of receptive females after antidepressant treatment
Assay type: in vivo, rat
Conditions: for mean number of non-contact penile erections: 30 min session, mean+sem; for decrease in the number of non-contact penile erections relative to vehicle-treated animals: time course studies (FIGS. 3-5), corresponding vehicle group
Procedure: The doses of the antidepressants evaluated in the present studies were selected based on the reported efficacious dose ranges of these drugs in preclinical models predicting antidepressant-like activity in rats including olfacoty bulbectomy studies and forced swim test experiments (Reneric et al., 1998; West et al., 1998; Joly and Sanger, 1986). […] On the day of behavioral testing, antidepressants were administered intraperitoneally (i.p.) as one hour pretreatments. For reversal experiments, apomorphine (Sigma; St. Louis, Mo.) was dissolved in 0.9% sterile saline vehicle and injected subcutaneously in a volume of 1 ml/kg. […] 17B-estradiol benzoate and progesterone were purchased from Sigma (St. Louis, Mo.).
Data are presented as group means±sem. For statistical analysis, data was subjected to one way analysis of variance (ANOVA) with a least significant difference (LSD) post-hoc test as appropriate. Statistical significance was achieved when p<0.05.
Intact male Sprague-Dawley rats (Charles River Laboratories) arrived at 7 weeks of age and were allowed to habituate for one week prior to sexual experience or behavioral testing. Rats were group housed in same-sex colony rooms with food and water provided ad libitum. All animals were maintained under a 12:12 light-dark cycle (lights on at 6:00 am) with behavioral experiments performed during the light hours beginning at noon.
Ovariectomized female Long-Evans rats (Charles River Laboratories) were individually housed and brought into behavioral estrus weekly by subcutaneous injection of 25 ug 17-B estradiol benzoate in 0.1 ml corn oil 48 hours prior to testing, followed by subcutaneous administration of 2.5 mg progesterone in 0.1 ml corn oil 4-6 hours before testing.
For subjects assigned into the sexually experienced group, the following procedures were performed. Individual male rats were placed into a cage with a sexually receptive female for overnight mating sessions. The mating chamber which was the housing chamber of the female mating partner, was a Plexiglas cage measuring 10×12 inches, with food and water ad libitum. Mating pairs were randomly assigned. […] Following overnight mating sessions, males and females were separated from each other and placed back into same-sex colony rooms where they were group-housed until the time of behavioral testing.
To determine the effects of female stimuli on non-contact penile erections, sexually receptive females were brought into the testing room one hour prior to the start of behavioral testing in order to provide female visual, olfactory, and auditory stimuli for males. The testing arena for observing non-contact penile erections in male rats consisted of an empty rat size Plexiglas cage (11×10 inches) containing no bedding, with an aerated plastic lid and a total ceiling height of 12 inches. […] A penile erection consisted of observation of the male rat in a hunched position grasping the penis with the forepaws and followed by a series of pelvic thrusts. The number of penile erections were quantified over a 30 minute observation session.

[1] = acute (1 day) treatment i.p., fluoxetine/desipramine 10 mg/kg, bupropion 20 mg/kg
[2] = chronic (14 day) treatment i.p., fluoxetine/desipramine 10 mg/kg/day, bupropion 20 mg/kg/day
[3] = chronic (14 day) treatment i.p.
[4] = subchronic (7 day) treatment i.p., fluoxetine/desipramine 10 mg/kg/day, bupropion 20 mg/kg/day

SMILES | mean number of non-contact penile erections [1] | decrease in the number of non-contact penile erections relative to vehicle-treated subjects (acute treatment i.p., desipramine 10 mg/kg, bupropion 20 mg/kg) | mean number of non-contact penile erections [2] | decrease in the number of non-contact penile erections relative to vehicle-treated animals [3] | reduction in the number of non-contact penile erections relative to vehicle-treated controls [4] | mean number of non-contact penile erections [4] | decrease in the number of non-contact penile erections relative to vehicle-treated controls (chronic (14 day) treatment i.p., FIG. 2 comparison, vehicle n=14 (1.79+0.32))
CC(NC(C)(C)C)C(=O)c1cccc(Cl)c1 (stereo not drawn) [bupropion, (.+−.)-1-(3-chlorophenyl)-2-[(1,1-dimethylethyl)amino]-1-propanone] | 0.50+0.22 | 57% | 1.63+0.57 | 7% | 11% | 2.00+0.50 | –
CNCCCN1c2ccccc2CCc2ccccc21 [desipramine] | 1.00+0.33 | – | 1.00+0.46 | 43% | 60% | 0.75+0.31 | 44% and 43%

Reference: patent publication US20060263299A1, “Effect of substances on sexual function” (priority 2005, published 2006)
